What all share (assay): uncleaved DNA left, log2 of reads against the no-enzyme library (log2 ratio); higher = less cleavage (more negative = more Rep cleavage of the k-mer); sequences stand for … in CTCGTCCG…ACCGGAGA
Assay [1] deals with T1, Rep nickase domain of Muscovy duck circovirus.
T1 sequence (Rep 1-111, printed without the tag): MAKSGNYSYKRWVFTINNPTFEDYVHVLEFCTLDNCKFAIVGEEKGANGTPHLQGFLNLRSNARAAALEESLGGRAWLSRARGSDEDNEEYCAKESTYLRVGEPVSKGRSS
As to the method:
(§1)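 A pool of 90-nt single-stranded DNAs with seven random bases just before the constant AC of the nick site (name = the seven bases) was cut by 3 µM recombinant His6-SUMO-tagged Rep nickase domain (300 nM DNA, 50 mM HEPES pH 8.0, 50 mM NaCl, 1 mM MnCl2, 1 h, 37 °C, three replicates). Uncut DNA was amplified and sequenced.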

In assay [2] the test system is T2, Rep nickase domain of banana bunchy top virus.
T2 sequence (Rep 1-94, printed without the tag): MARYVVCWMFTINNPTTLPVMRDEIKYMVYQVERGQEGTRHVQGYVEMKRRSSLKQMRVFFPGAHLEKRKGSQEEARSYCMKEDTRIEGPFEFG
How it is done:
as §1

For assay [3], the system named is T3, Rep nickase domain of cabbage leaf curl virus.
T3 sequence (Rep 1-116, printed without the tag): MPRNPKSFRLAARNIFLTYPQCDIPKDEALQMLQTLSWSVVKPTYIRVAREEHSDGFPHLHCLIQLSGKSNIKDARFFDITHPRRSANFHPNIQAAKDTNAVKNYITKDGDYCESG
As to the method:
as §1

The test system of assay [4] is T4, Rep nickase domain of chickpea chlorotic dwarf virus.
T4 sequence (Rep 1-124, printed without the tag): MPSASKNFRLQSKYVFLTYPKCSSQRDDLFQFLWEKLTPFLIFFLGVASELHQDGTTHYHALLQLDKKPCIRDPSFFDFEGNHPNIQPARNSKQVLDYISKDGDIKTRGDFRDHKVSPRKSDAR
How it is done:
as §1

The test system of assay [5] is T5, Rep nickase domain of faba bean necrotic yellows virus.
T5 sequence (Rep 1-98, printed without the tag): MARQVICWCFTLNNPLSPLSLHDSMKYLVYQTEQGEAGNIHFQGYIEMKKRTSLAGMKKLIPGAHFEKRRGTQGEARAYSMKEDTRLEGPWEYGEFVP
As to the method:
as §1

Assay [6] relates to T6, Rep nickase domain of maize striate mosaic virus.
T6 sequence (Rep 1-117, printed without the tag): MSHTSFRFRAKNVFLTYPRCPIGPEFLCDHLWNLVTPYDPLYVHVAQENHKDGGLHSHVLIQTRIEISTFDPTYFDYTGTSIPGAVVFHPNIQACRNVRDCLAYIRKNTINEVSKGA
How it is done: as §1
Assay [7] relates to T7, Rep nickase domain of porcine circovirus 2.
T7 sequence (Rep 2-116, printed without the tag): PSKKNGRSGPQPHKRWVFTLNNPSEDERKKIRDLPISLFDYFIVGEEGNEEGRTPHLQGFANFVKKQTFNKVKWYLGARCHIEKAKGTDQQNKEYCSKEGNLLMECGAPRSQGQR
How it is done: as §1
For assay [8], the system named is T8, Rep nickase domain of tomato yellow leaf curl virus.
T8 sequence (Rep 1-136, printed without the tag): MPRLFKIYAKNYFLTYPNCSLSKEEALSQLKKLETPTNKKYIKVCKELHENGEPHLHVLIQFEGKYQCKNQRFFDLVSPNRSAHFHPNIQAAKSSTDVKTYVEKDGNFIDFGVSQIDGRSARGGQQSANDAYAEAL
How it is done:
as §1

For assay [9], the system named is T9, Rep nickase domain of wheat dwarf virus.
T9 sequence (Rep 1-137, printed without the tag): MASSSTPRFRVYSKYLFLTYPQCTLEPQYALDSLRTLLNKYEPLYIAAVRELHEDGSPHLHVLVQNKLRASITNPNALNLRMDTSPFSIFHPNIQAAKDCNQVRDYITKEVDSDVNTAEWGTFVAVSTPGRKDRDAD
How it is done: as §1

The list shows a part of the results. Cleavage of a single-stranded DNA pool by Rep nickase domains was read by sequencing (3 µM enzyme, 1 h, 37 °C); shown is the middle of each 90-letter strand. Numbers give uncut DNA relative to the enzyme-free pool, as log2; strong cutting gives strongly negative numbers. There is no active / inactive call. Reads are scaled to the total; uncut strands gain when others are lost, and binding without cutting may add a little.

With GGGCTGC, the “uncleaved DNA left (log2)” value in [1] is -0.00592; in assay [2], 0.157; in assay [3], 0.766; in assay [4] it was 1.81; in [5], -0.0824; in [6], 2.15. The “uncleaved DNA left (log2)” value in assay [7] is 0.103; in [8] it was -0.0925; in assay [9] it was 0.153.
Turning to CTCAGTA, the “uncleaved DNA left (log2)” value was 0.102 in assay [1]; -0.0532 in assay [2]; -0.16 in [3]; -1.24 in assay [4]; -0.0305 in assay [5]; -0.565 in assay [6]. The “uncleaved DNA left (log2)” value is -0.082 in assay [7], 0.0183 in [8] and 0.0975 in [9].
As for TAGCCGG, the “uncleaved DNA left (log2)” value in assay [1] was found to be 0.0949; in assay [2] it was 0.0106; in assay [3], 0.502; in assay [4], 1.22; in assay [5], 0.018; in assay [6], 1.67. Moreover, the results for the “uncleaved DNA left (log2)” value in assay [7], in assay [8] and in assay [9] were 0.0813, 0.0186 and 0.0312, respectively.
For the sequence TCGGCCT, the “uncleaved DNA left (log2)” value was -0.0491 in assay [1]; -0.0619 in assay [2]; 0.000148 in [3]; -1.09 in assay [4]; -0.136 in [5]; -0.136 in [6]. In addition, the “uncleaved DNA left (log2)” value in assay [7] is -0.322; in [8], -0.139; in assay [9], -0.147.
In the case of CTAGGCC, the “uncleaved DNA left (log2)” value in [1] was -0.0791; in [2], -0.0527; in assay [3] it was 0.105; in assay [4], 0.334; in assay [5], -0.108; in assay [6], -0.238. The “uncleaved DNA left (log2)” value in assay [7] is -0.11; in assay [8] it was -0.138; in assay [9], 0.0339.
With GCTCCCC, the “uncleaved DNA left (log2)” value in assay [1] is -0.273; in [2] it was -0.0108; in assay [3], 0.188; in [4] it was 0.382; in assay [5] it was -0.152; in assay [6] it was 0.388. Moreover, the “uncleaved DNA left (log2)” value is -0.826 in assay [7], 0.0435 in assay [8] and -0.0594 in assay [9].
Regarding TACGAGC, the “uncleaved DNA left (log2)” value in [1] was found to be 0.0798; in assay [2], 0.197; in [3] it was 0.351; in assay [4], 0.851; in assay [5], 0.033; in [6] it was 0.649. The “uncleaved DNA left (log2)” value in assay [7] came out at 0.182; in assay [8], 0.00823; in assay [9], 0.11.
In the case of CGAAGAC, the “uncleaved DNA left (log2)” value is -0.13 in [1]; -0.0412 in assay [2]; 0.0314 in assay [3]; 0.377 in assay [4]; 0.00254 in assay [5]; 0.319 in assay [6]. Further, the “uncleaved DNA left (log2)” value is 0.0264 in [7], -0.105 in assay [8] and -0.0167 in assay [9].
On to GGGGGTT, for which the “uncleaved DNA left (log2)” value in assay [1] was -0.0878; in [2] it was 0.0407; in [3], 0.776; in [4], 1.69; in assay [5] it was 0.0619; in assay [6], 2.16. Also, the results for the “uncleaved DNA left (log2)” value in [7], in assay [8] and in [9] were 0.0803, -0.0497 and 0.0362, respectively.
In the case of TGATCCC, the “uncleaved DNA left (log2)” value in assay [1] came out at 0.0667; in [2], 0.137; in assay [3], 0.47; in assay [4], 0.651; in [5], 0.112; in assay [6], 0.891. Also, the “uncleaved DNA left (log2)” value in assay [7] came to 0.0666; in assay [8] it was 0.0731; in [9] it was 0.167.
Consider AGTTCCG, for which the “uncleaved DNA left (log2)” value in assay [1] was -0.00911; in [2], -0.0211; in [3] it was -0.831; in assay [4] it was -0.161; in assay [5] it was 0.00284; in [6], -1.09. Further, the figures for the “uncleaved DNA left (log2)” value in assay [7], in assay [8] and in assay [9] were 0.0671, -0.0584 and -0.139, respectively.
In the case of GTAAACA, the “uncleaved DNA left (log2)” value was 0.0129 in [1]; 0.0349 in assay [2]; 0.257 in assay [3]; 0.445 in assay [4]; -0.216 in [5]; 1.48 in assay [6]. For the same sequence, the results for the “uncleaved DNA left (log2)” value in [7], in assay [8] and in assay [9] were 0.0323, 0.012 and -0.0231, respectively.
In the case of GAGCTAG, the “uncleaved DNA left (log2)” value in [1] is -0.156; in assay [2], -0.157; in assay [3] it was -0.291; in assay [4], 0.0262; in assay [5], -0.15; in [6] it was -0.583. The “uncleaved DNA left (log2)” value was -0.0795 in assay [7], -0.138 in assay [8] and -0.122 in [9].
Turning to GGCTCTT, the “uncleaved DNA left (log2)” value in assay [1] was -0.44; in assay [2] it was -0.0503; in [3], 0.364; in [4], 0.547; in assay [5], -0.0788; in assay [6], 1.7. The “uncleaved DNA left (log2)” value was -2.23 in assay [7], -0.0715 in assay [8] and 0.0663 in assay [9].
As for AGCACAC, the “uncleaved DNA left (log2)” value in assay [1] turned out to be 0.0736; in [2], 0.033; in [3], 0.0334; in [4], 0.456; in assay [5], 0.0987; in assay [6], 0.646. Besides, the “uncleaved DNA left (log2)” value in assay [7] is -0.00673; in [8], 0.118; in assay [9], 0.103.

These data come from the supplement of paper PMC7826260.
